From PMC4336329 (PLoS ONE, 2015)
Among all 310,000 compounds or so, about 14,000 (4.5%) showed an effect of 50% or more. Effects have a minus sign here. Some of the results follow.

target: human ether-à-go-go-related gene (hERG) potassium channel (human, UniProt Q12809); assay: primary screen, population patch clamp on CHO cells stably expressing hERG
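Note: peak tail current of the secondary pulse compared with the same well before compound.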

Chain of human ether-à-go-go-related gene (hERG) potassium channel (Q12809 whole entry, looked up): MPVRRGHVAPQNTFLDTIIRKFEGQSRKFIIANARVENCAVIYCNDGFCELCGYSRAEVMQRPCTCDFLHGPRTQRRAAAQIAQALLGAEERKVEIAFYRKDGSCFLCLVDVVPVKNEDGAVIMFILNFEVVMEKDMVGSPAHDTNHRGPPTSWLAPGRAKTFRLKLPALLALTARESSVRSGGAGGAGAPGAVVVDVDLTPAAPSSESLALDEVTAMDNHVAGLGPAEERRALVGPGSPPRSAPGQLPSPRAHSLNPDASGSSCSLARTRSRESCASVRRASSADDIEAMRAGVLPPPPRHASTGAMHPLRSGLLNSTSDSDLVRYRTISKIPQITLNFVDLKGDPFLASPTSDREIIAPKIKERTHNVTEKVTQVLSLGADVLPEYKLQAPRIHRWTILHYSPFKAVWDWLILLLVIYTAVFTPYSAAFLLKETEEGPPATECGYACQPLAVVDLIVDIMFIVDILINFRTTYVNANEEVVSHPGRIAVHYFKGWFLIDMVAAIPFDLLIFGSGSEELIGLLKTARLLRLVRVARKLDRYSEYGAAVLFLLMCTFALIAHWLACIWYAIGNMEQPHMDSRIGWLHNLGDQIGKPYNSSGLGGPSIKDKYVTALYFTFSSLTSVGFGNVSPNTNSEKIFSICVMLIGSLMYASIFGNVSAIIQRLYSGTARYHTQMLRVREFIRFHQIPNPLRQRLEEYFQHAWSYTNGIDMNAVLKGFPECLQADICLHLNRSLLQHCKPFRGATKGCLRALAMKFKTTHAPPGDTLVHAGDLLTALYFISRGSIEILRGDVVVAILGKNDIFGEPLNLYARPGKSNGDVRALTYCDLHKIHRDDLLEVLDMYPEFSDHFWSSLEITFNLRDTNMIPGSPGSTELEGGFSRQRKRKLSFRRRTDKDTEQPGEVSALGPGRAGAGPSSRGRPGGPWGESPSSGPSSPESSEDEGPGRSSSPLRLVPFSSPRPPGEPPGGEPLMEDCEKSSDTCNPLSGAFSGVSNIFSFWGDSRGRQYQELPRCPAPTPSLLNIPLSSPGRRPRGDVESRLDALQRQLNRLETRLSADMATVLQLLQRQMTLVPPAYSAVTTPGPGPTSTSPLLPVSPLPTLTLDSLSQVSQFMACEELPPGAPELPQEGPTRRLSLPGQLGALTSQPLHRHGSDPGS

Structure (SMILES)	hERG current change (%, negative = inhibition) at 10uM [%]
O=C(COC(=O)[C@@H]1CC(O)CN1S(=O)(=O)c1ccc(Cl)cc1)NC(=O)NCc1ccccc1 (stereo partly shown)	-30.1
COc1cccc(C2CC(c3ccc(Cl)cc3)Nc3nc(N)nn32)c1 (stereo not shown)	-16.1
Cc1[nH]c2ccccc2c1SCC(=O)N1CCOCC1	8.55
COCCNC(=S)N1CCN(c2ccc(Cl)cc2)CC1	-12.9
COc1ccc(NS(=O)(=O)c2cccc(-c3nnc(-c4ccccc4)o3)c2)cc1	-20.6
Nc1ccc(S(=O)(=O)Nc2ncccn2)cc1	23.9
CCc1nc2ccc(C(=O)NCCCN3CCN(c4ccccc4F)CC3)cc2nc1CC	-49.8
Cc1cc(NC(=O)c2cc(CC(C)C)on2)n(-c2ccccc2)n1	9.57
NCCCC[C@H]1CNC(=O)C(=O)N1CCc1cccc2ccccc12	3.03
Br.COc1ccc(N=c2scc(-c3ccc(OC)cc3)n2CCO)cc1	2.85
COC(=O)c1ccc(N2CCN(C(=O)C3CC3)CC2)c([N+](=O)[O-])c1	-7.61
Cc1cccc(NC(=O)c2c([N+](=O)[O-])cnn2C)c1	16.9
COC(=O)c1ccc(C2/C(=C(\O)c3cccc(OC)c3)C(=O)C(=O)N2CCCN(C)C)cc1 (stereo not shown)	-0.614
Cc1ccccc1N1CC(C(=O)Nc2ccc(S(=O)(=O)N3CCCC3)cc2)CC1=O (stereo not shown)	3.59
O=c1oc2ccccc2cc1-c1nc(-c2cccs2)cs1	7.87
CN(C1CCCCC1)S(=O)(=O)c1ccc2c(c1)c(=O)c(C(=O)NCCCN1CCCC1)cn2C	-25.6
Cc1ccccc1C(=O)Nc1cccc(C(=O)N/N=C/c2cc(Cl)cc([N+](=O)[O-])c2O)c1	7.34
Cc1nnc(NC(=O)CCC(=O)NCc2ccco2)s1	13.5
COc1ccc(-c2csc(NC(=S)NC(=O)c3ccc(S(=O)(=O)N(C)C)cc3)n2)cc1OC	6.31
Ic1ccccc1CN[C@@H]1C2CCN(CC2)[C@@H]1C(c1ccccc1)c1ccccc1.O.O=C(O)C(=O)O	-69.7
CN(C)S(=O)(=O)c1cccc(NC(=O)c2cccc(S(=O)(=O)N3CCc4ccccc43)c2)c1	-4.62
CC(NC(=O)Nc1ccc(Cl)cc1)C(c1cccs1)N1CCOCC1 (stereo not shown)	-8.08

Structure (SMILES)	hERG current change (%, negative = inhibition) at 10uM [%]
COc1ccc(N=Nc2cc(C)c(O)c(CN3CCCCC3)c2)cc1	1.85
CC(C)(O)[C@@H]1Cc2c(ccc3ccc(=O)oc23)O1	6.69
COc1ccc(C(c2nnnn2C2CCCC2)N2CCN(C(=O)c3ccco3)CC2)cc1OC.Cl (stereo not shown)	-32.8
CCC(=O)Nc1ncc2c(n1)CC(c1ccco1)CC2=O (stereo not shown)	7.92
CC(=O)Nc1ccc(OCC(=O)N(CC(C)C)C2CCS(=O)(=O)C2)cc1 (stereo not shown)	10.5
CC12CN3CC(C)(CN(C1)C3c1ccc(Br)cc1)C2=O (stereo not shown)	0.611
CCCCn1c(N)c(N(CCOC)C(=O)COc2ccc(C(C)=O)cc2)c(=O)[nH]c1=O	21
Cc1ccc(N2C(=S)N=C(Nc3ccccc3C)C23CCOC(C)(C)C3)cc1 (stereo not shown)	-2.58
COc1ccccc1CNC(=O)COC(=O)c1cccc(-n2cnnn2)c1	-7.25
COC(=O)c1ccc(/C=N/NC(=S)NCCN2CCOCC2)cc1	-0.156
Fc1ccc(-c2nc3c(Cl)cc(C(F)(F)F)cn3c2Cl)cc1	6.91
CCOC(=O)c1cc2c(ccn2C)n1Cc1cc(C)ccc1C	13.3
CC1O[C@@H](OCC2O[C@@H](Oc3cc(O)c4c(c3)OC(c3ccc(O)cc3)CC4=O)[C@H](O)[C@@H](O)[C@@H]2O)[C@H](O)[C@H](O)[C@H]1O (stereo partly shown)	1.53
O=C1CC(c2ccccc2)CC(O)=C1C=NCCN1CCN(Cc2ccccc2)CC1 (stereo not shown)	-63.1
CCOC(=O)C1=C(C)OC(N)=C(C#N)C1c1cccc(C)c1 (stereo not shown)	-3.78
Cc1cc(OCc2cc(C(=O)N(C)CCc3cnn(C)c3)no2)cc(C)c1Cl	-38.9
COc1ccc(OC)c(C2CC(=O)Nc3cc(OC)c(OC)c(OC)c32)c1 (stereo not shown)	5.91
COCCCn1c(=NC(C)=O)c(C#N)cc2c(=O)n3cccc(C)c3nc21	-49.7
COc1cc2c(cc1OC)C(c1ccc(O)cc1)NCC2 (stereo not shown)	19.6
O=C(CCC(=O)N1CCCCCC1)Nc1ccc([N+](=O)[O-])cc1	-13.5
COc1cc(OC)c2ccc(=O)oc2c1C(CC(=O)N1CCCC1)c1ccc2c(c1)OCO2 (stereo not shown)	-9.26
CN(c1ccccc1)S(=O)(=O)c1cccc(NC(=O)CSc2nncn2C)c1	-5.44

Structure (SMILES)	hERG current change (%, negative = inhibition) at 10uM [%]
Cc1nn(C)cc1/C=N/O	-2.18
O=C(O)C(=O)O.c1ccc(COc2cccc(CN3CCc4ccccc4C3)c2)cc1	9.46
Cc1cc(C(=O)NCc2cccnc2)cs1	-12.2
CCOc1cc(CNCCCN2CCOCC2)cc(Br)c1OCc1ccccc1Cl.Cl	-64.9
Cc1nc2c(-c3ccccc3)c(C)nn2c(C)c1CCC(=O)NCc1ccco1	-29.9
CCCCN(CCCC)C(=O)CSc1nnc(-c2cc(OC)c(OC)c(OC)c2)o1	-58.5
O=C(CN1CC(c2ccccc2)CC1=O)Nc1ccc2c(c1)OCO2 (stereo not shown)	1.05
Cc1ccc(N2CCN(C(=O)c3nn(C)c4c3CS(=O)(=O)c3ccccc3-4)CC2)c(C)c1	-3
CCOC(=O)C(C)Sc1nc(C2CC2)cc(C(F)(F)F)c1C#N (stereo not shown)	5.04
COc1ccc(C(=O)OC(C(=O)c2ccc(C)cc2)c2ccccc2)cc1 (stereo not shown)	-0.636
CCN(CC)CCCNC(=O)c1ccc(CS(=O)(=O)c2ccccc2OC)o1	16.3
CCOC(=O)c1ccc(NC(=O)c2nc[nH]c2C(=O)N[C@@H](Cc2ccccc2)C(=O)OC(C)(C)C)cc1	0.506
CN(C(=S)NC(=O)C1(C)CC1(Cl)Cl)c1ccccc1 (stereo not shown)	16.7
O=C(Nc1ccc(Nc2ccccc2)cc1)c1cc([N+](=O)[O-])ccc1Cl	11.2
Cc1cc(NS(=O)(=O)c2ccc(NS(=O)(=O)c3cc(C)c(Cl)cc3Cl)cc2)no1	9.82
COc1cc(/C=C/C(=O)c2ccc(NS(=O)(=O)c3ccc(C)cc3)cc2)cc(OC)c1O	-0.984
Cc1ccc2c(c1)COc1c3ccc(C(=O)NC(C)C)cc3nn1-2	6.46
COc1ccccc1NC(=O)N(CCCN1CCOCC1)Cc1cc2cc3c(cc2[nH]c1=O)OCO3	-11.4
Cc1nn(C)c(C)c1S(=O)(=O)NCCc1ccc(Cl)cc1	-3.38
O=C(O)C1C2C=CC3(CN(C/C=C/c4ccccc4)C(=O)C13)O2 (stereo not shown)	12.2
Cc1ccc(-n2c(=O)c(C#N)cc3c(=O)n4ccccc4nc32)cc1C	-2.4
CC/C(=N/N=C(/CC)c1ccc(O)cc1)c1ccc(O)cc1	-2.21

Structure (SMILES)	hERG current change (%, negative = inhibition) at 10uM [%]
CC(=O)N1CCOc2ccc(S(=O)(=O)N3CCC(C(=O)NCc4ccc(F)cc4)CC3)cc21	4.09
COc1ccc(NC(=S)Nn2cnnc2)cc1OC	30.3
CC(Sc1ccc(S(=O)(=O)N2CCOCC2)cn1)C(=O)Nc1ccc(Cl)cc1Cl (stereo not shown)	-56.1
Cc1onc(-c2ccccc2)c1C(=O)Nc1ccnn1C1CCCCC1	-12.7
CC(=O)Nc1c(C(=O)c2ccc(F)cc2)oc2ccccc12	1.61
CCCCOCCCNC(=O)N[C@H](C(=O)OC)C(C)C	10.7
CCc1ccccc1N=C1SCC(=O)N1C	2.46
CC1CCN(S(=O)(=O)c2ccc3ccccc3c2)CC1	-21.9
Cc1nc(SCC(=O)NC2CCCCC2C)c(C#N)c(C)c1C (stereo not shown)	-7.03
O=C1NCCC/C1=N/Nc1cc(F)ccc1F	-9.56
CCN(CC)CCN(Cc1cc2cc3c(cc2[nH]c1=O)OCO3)C(=S)NCC(C)C	-55.1
CCOc1ccc(N(CC(=O)NC2CCCCC2)C(=O)CCC(=O)Nc2nc(C)cs2)cc1	-50.6
Cc1ccc(S(=O)(=O)N2CCN(S(=O)(=O)N3CCCCC3)CC2)cc1	11.7
CCC1CCCCN1C(=S)NC(=O)c1cc(S(=O)(=O)N2CCOCC2)ccc1C (stereo not shown)	2.98
CCOc1ccccc1NC(=O)CCn1c(=O)oc2ccccc21	-12.9
COc1ccc(NC(=O)c2ccc(-c3ccc([N+](=O)[O-])cc3)o2)cc1	-33.1
CCNC(=O)NC(=O)COc1ccccc1C#N	16.4
COc1ccc(CCNC(=O)c2cc(-c3ccccc3O)n[nH]2)cc1OC	0.414
N#CC1(C#N)COC23CCCCC2C1(C#N)C(=N)O3 (stereo not shown)	-0.33
